# Measurements reported in the supplement of paper PMC8728848.
# Some of the results follow.
# B1: F17aG (Escherichia coli), Q99003 (protein)
# chain: MTNFYKVFLAVFILVCCNISQAAVSFIGSTENDVGPSLGSYSRTHAMDNLPFVYDTRNKIGYQNANVWHISKGFCVGLDGKVDLPVVGSLDGQSIYGLTEEVGLLIWMGDTKYSRGTAMSGNSWENVFSGWCVGANTASTQGLSVRVTPVILKRNSSARYSVQKTSIGSIRMRPYNGSSAGSVQTTVNFSLNPFTLNDTVTSCRLLTPSAVNVSLAAISAGQLPSSGDEVVAGTTSLKLQCDAGVTVWATLTDATTPSNRSDILTLTGASTATGVGLRIYKNTDSTPLKFGPDSPVKGNENQWQLSTGTETSPSVRLYVKYVNTGEGINPGTVNGISTFTFSYQ
# Assays:
# Test in all cases: glycan array binding signal (z-score within array); higher = stronger binding
# Conditions in all cases: glycan notation: IUPAC condensed, linker removed
# Kdn(a2-3)Gal(b1-3)GlcNAc = molecular target: Kdn(a2-3)Gal(b1-3)GlcNAc
# Method in brief: (§1)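 Negative Z-scores can be read as non-binding. The Z-score is calculated within each array and then averaged across arrays of one protein sequence at different concentrations or buffers and across linkers. Arrays, 3228 in all, were curated from the Consortium for Functional Glycomics database and kept only where the protein sequence was available.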
# Kdn(a2-3)Gal(b1-4)Glc = molecular target: Kdn(a2-3)Gal(b1-4)Glc
# Method in brief: as §1
# Kdn(a2-3)Gal(b1-4)GlcNAc = molecular target: Kdn(a2-3)Gal(b1-4)GlcNAc
# Method in brief: as §1
# [1] = molecular target: Kdn(a2-3)Gal(b1-4)[Fuc(a1-3)]GlcNAc
# Method in brief: as §1
# Kdn(a2-6)Gal(b1-4)GlcNAc = molecular target: Kdn(a2-6)Gal(b1-4)GlcNAc
# Method in brief: as §1
# [2] = molecular target: Man(a1-2)Man(a1-2)Man(a1-3)Man
# Method in brief: as §1
# [3] = molecular target: Man(a1-2)Man(a1-2)Man(a1-6)[Man(a1-3)]Man
# Method in brief: as §1
# Man(a1-2)Man(a1-3)Man = molecular target: Man(a1-2)Man(a1-3)Man
# Method in brief: as §1
# [4] = molecular target: Man(a1-2)Man(a1-3)[Man(a1-2)Man(a1-6)]Man
# Method in brief: as §1
# [5] = molecular target: Man(a1-2)Man(a1-3)[Man(a1-2)Man(a1-6)]Man(a1-6)[Man(a1-2)Man(a1-2)Man(a1-3)]Man
# Method in brief: as §1
# [6] = molecular target: Man(a1-2)Man(a1-3)[Man(a1-2)Man(a1-6)]Man(a1-6)[Man(a1-2)Man(a1-2)Man(a1-3)]Man(b1-4)GlcNAc(b1-4)GlcNAc
# Method in brief: as §1
# [7] = molecular target: Man(a1-2)Man(a1-3)[Man(a1-6)]Man(a1-6)[Man(a1-2)Man(a1-3)]Man(b1-4)GlcNAc(b1-4)GlcNAc
# Method in brief: as §1
# [8] = molecular target: Man(a1-2)Man(a1-6)[Man(a1-3)]Man(a1-6)[Man(a1-2)Man(a1-2)Man(a1-3)]Man
# Method in brief: as §1
# [9] = molecular target: Man(a1-2)Man(a1-6)[Man(a1-3)]Man(a1-6)[Man(a1-2)Man(a1-2)Man(a1-3)]Man(b1-4)GlcNAc(b1-4)GlcNAc
# Method in brief: as §1
# Man(a1-3)[Man(a1-6)]Man = molecular target: Man(a1-3)[Man(a1-6)]Man
# Method in brief: as §1
# [10] = molecular target: Man(a1-3)[Man(a1-6)]Man(a1-6)[Man(a1-2)Man(a1-3)]Man(b1-4)GlcNAc(b1-4)GlcNAc
# Method in brief: as §1
# [11] = molecular target: Man(a1-3)[Man(a1-6)]Man(a1-6)[Man(a1-3)]Man
# Method in brief: as §1
# [12] = molecular target: Man(a1-3)[Man(a1-6)]Man(a1-6)[Man(a1-3)]Man(b1-4)GlcNAc(b1-4)GlcNAc
# Method in brief: as §1
# [13] = molecular target: Man(a1-3)[Man(a1-6)]Man(b1-4)GlcNAc(b1-4)GlcNAc
# Method in brief: as §1
# Man(a1-6)Man = molecular target: Man(a1-6)Man
# Method in brief: as §1
# Man(b1-4)GlcNAc = molecular target: Man(b1-4)GlcNAc
# Method in brief: as §1
# Neu5Ac(a2-3)Gal = molecular target: Neu5Ac(a2-3)Gal
# Method in brief: as §1
# [14] = molecular target: Neu5Ac(a2-3)Gal(b1-3)GalNAc
# Method in brief: as §1
# [15] = molecular target: Neu5Ac(a2-3)Gal(b1-3)GalNAc(b1-3)Gal(a1-4)Gal(b1-4)Glc
# Method in brief: as §1
# [16] = molecular target: Neu5Ac(a2-3)Gal(b1-3)GalNAc(b1-3)Gal(b1-4)GlcNAc
# Method in brief: as §1
# [17] = molecular target: Neu5Ac(a2-3)Gal(b1-3)GalNAc(b1-4)[Neu5Ac(a2-3)]Gal(b1-4)Glc
# Method in brief: as §1
# [18] = molecular target: Neu5Ac(a2-3)Gal(b1-3)GalNAc(b1-4)[Neu5Ac(a2-8)Neu5Ac(a2-3)]Gal(b1-4)Glc
# Method in brief: as §1
# [19] = molecular target: Neu5Ac(a2-3)Gal(b1-3)GalNAc6S
# Method in brief: as §1
# [20] = molecular target: Neu5Ac(a2-3)Gal(b1-3)GlcNAc
# Method in brief: as §1
# [21] = molecular target: Neu5Ac(a2-3)Gal(b1-3)GlcNAc(b1-3)Gal(b1-3)GlcNAc
# Method in brief: as §1
# [22] = molecular target: Neu5Ac(a2-3)Gal(b1-3)GlcNAc(b1-3)Gal(b1-4)GlcNAc
# Method in brief: as §1
# [23] = molecular target: Neu5Ac(a2-3)Gal(b1-3)GlcNAc(b1-3)GalNAc
# Method in brief: as §1
# [24] = molecular target: Neu5Ac(a2-3)Gal(b1-3)GlcNAc6S
# Method in brief: as §1
# [25] = molecular target: Neu5Ac(a2-3)Gal(b1-3)[Fuc(a1-4)]GlcNAc
# Method in brief: as §1
# [26] = molecular target: Neu5Ac(a2-3)Gal(b1-3)[Fuc(a1-4)]GlcNAc(b1-3)Gal(b1-3)[Fuc(a1-4)]GlcNAc
# Method in brief: as §1
# [27] = molecular target: Neu5Ac(a2-3)Gal(b1-3)[Fuc(a1-4)]GlcNAc(b1-3)Gal(b1-4)[Fuc(a1-3)]GlcNAc
# Method in brief: as §1
# [28] = molecular target: Neu5Ac(a2-3)Gal(b1-3)[Neu5Ac(a2-3)Gal(b1-4)]GlcNAc
# Method in brief: as §1
# [29] = molecular target: Neu5Ac(a2-3)Gal(b1-3)[Neu5Ac(a2-6)]GalNAc
# Method in brief: as §1
binder,measurement,setting,value
B1,glycan array binding signal (z-score),Kdn(a2-3)Gal(b1-3)GlcNAc,-0.246
same,glycan array binding signal (z-score),Kdn(a2-3)Gal(b1-4)Glc,-0.177
same,glycan array binding signal (z-score),Kdn(a2-3)Gal(b1-4)GlcNAc,-0.249
same,glycan array binding signal (z-score),[1],-0.154
same,glycan array binding signal (z-score),Kdn(a2-6)Gal(b1-4)GlcNAc,-0.152
same,glycan array binding signal (z-score),[2],-0.211
same,glycan array binding signal (z-score),[3],-0.257
same,glycan array binding signal (z-score),Man(a1-2)Man(a1-3)Man,-0.24
same,glycan array binding signal (z-score),[4],-0.114
same,glycan array binding signal (z-score),[5],-0.064
same,glycan array binding signal (z-score),[6],-0.03
same,glycan array binding signal (z-score),[7],-0.24
same,glycan array binding signal (z-score),[8],-0.157
same,glycan array binding signal (z-score),[9],-0.238
same,glycan array binding signal (z-score),Man(a1-3)[Man(a1-6)]Man,0.234
same,glycan array binding signal (z-score),[10],-0.172
same,glycan array binding signal (z-score),[11],-0.174
same,glycan array binding signal (z-score),[12],-0.176
same,glycan array binding signal (z-score),[13],-0.202
same,glycan array binding signal (z-score),Man(a1-6)Man,-0.158
same,glycan array binding signal (z-score),Man(b1-4)GlcNAc,-0.032
same,glycan array binding signal (z-score),Neu5Ac(a2-3)Gal,-0.245
same,glycan array binding signal (z-score),[14],-0.191
same,glycan array binding signal (z-score),[15],-0.238
same,glycan array binding signal (z-score),[16],-0.344
same,glycan array binding signal (z-score),[17],-0.251
same,glycan array binding signal (z-score),[18],-0.195
same,glycan array binding signal (z-score),[19],-0.219
same,glycan array binding signal (z-score),[20],-0.207
same,glycan array binding signal (z-score),[21],-0.155
same,glycan array binding signal (z-score),[22],-0.181
same,glycan array binding signal (z-score),[23],-0.157
same,glycan array binding signal (z-score),[24],-0.227
same,glycan array binding signal (z-score),[25],-0.226
same,glycan array binding signal (z-score),[26],-0.173
same,glycan array binding signal (z-score),[27],-0.056
same,glycan array binding signal (z-score),[28],0.26
same,glycan array binding signal (z-score),[29],-0.081
